Measured values taken from the RNAGym collection of RNA variant scans (doi:10.1073/pnas.2313332121).
This sample is rich in variants without activity.

B1: TPR 5TU (parent)
chain: GGAUCUUCUCGAUCUAACAAAAAAGACAAAUCUGCCACAAAGCUUGAGAGCAUCUUCGGAUGCAGAGGCGGCAGCCUUCGGUGGCGCGAUAGCGCCAACGUUCUCAACUAUGACACGCAAAACGCGUGCUCCGUUGAAUGGAGUUUAUCAUG

Variants of: B1
Assay: polymerase ribozyme fitness, log enrichment relative to wild type (log ratio); higher = more active; in vitro selection for triplet polymerase activity
How it was run: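 Each subunit of a heterodimeric triplet polymerase ribozyme was mutagenized into a library by PCR, transcribed, and subjected to one round of in vitro selection, run in triplicate. Libraries were annealed with a biotinylated primer, the partner subunit and triplets, incubated frozen at −7 °C, and extended constructs were gel-excised, captured on streptavidin beads and recovered by RT-PCR. Input and output libraries were sequenced on Illumina, keeping genotypes with ≥10 input reads and ≥1 read per output. Fitness is log base 2 of genotype enrichment divided by wild-type enrichment, from inverse-variance-weighted replicate averages.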

Variant | polymerase ribozyme fitness (log ratio)
U13A G58A C87A G133A G143C | ≤ -4.2
U13A G58C C87G | ≤ -4.2
U13A G58U A64U C93A C105U A142G | ≤ -4.2
U13A G94C | -1.19
U13A U15C A26C C93A | -3.05
U13A U15C C87A | ≤ -4.2
U13A U15G C35A A66G A98U C108G U111A C129U | ≤ -4.2
U13A U33A A41C A49U C85U | ≤ -4.2
U13A U44A G94U A115U | ≤ -4.2
U13A U44G C85A A142G | ≤ -4.2
U13A U56G C79A C93A | ≤ -4.2
U13A U78G A91U U134A U146G | ≤ -4.2
U13C | -0.269
U13C A16U G84A U109G | -1.88
U13C A19U G25A U45G C57A U82G C93A C95A U145C | ≤ -4.2
U13C A20C A29C C38A C116G G124C C131U | ≤ -4.2
U13C A20U A47G U56G C85A G88U A147U | ≤ -4.2
U13C A21C | 0.934
U13C A21G A24G C32U C72U C76G C85U C123G | ≤ -4.2
U13C A22C C96G U139G A142U U145A A150U | ≤ -4.2
U13C A22G U31C C43A C85G U145C | ≤ -4.2

Variant | polymerase ribozyme fitness (log ratio)
U13C A22U A24U U53A A98U | -1.6
U13C A22U C76G | ≤ -4.2
U13C A26U U55A G68A G80A G84U U102C U148C | ≤ -4.2
U13C A26U U56A G58C C63A G74U G88C A97U | ≤ -4.2
U13C A29G C35U A52G C54U G59U G70A U78C G80C G136A | ≤ -4.2
U13C A29U G34A A39C U77G G80C U139C U144A G152U | ≤ -4.2
U13C A29U U55G | ≤ -4.2
U13C A30C G70A C79A C95U C96A C118A G126U | ≤ -4.2
U13C A30G A73C G84U A89U | ≤ -4.2
U13C A30U C36G C51U U55A C87A G126U | ≤ -4.2
U13C A39C U56A C95U G124A | -3.63
U13C A39U U56A G86A C87U | ≤ -4.2
U13C A47G C69U C87U A97C A106U A121G C123G A142C | ≤ -4.2
U13C A49C C93A | ≤ -4.2
U13C A91U A120U | -3.86
U13C C14G A29U G74C A98G G141A G143U | ≤ -4.2
U13C C14G C57A U101G | -1.23
U13C C14U U77G G84U U145G U148A | ≤ -4.2
U13C C18A A40C U53A G83A | -2.56
U13C C18U | 0.127
U13C C32A A49C | ≤ -4.2

Variant | polymerase ribozyme fitness (log ratio)
U13C C32G U55A G68C G92U C93U U134C | ≤ -4.2
U13C C35A A91U C95A U104C C131G | ≤ -4.2
U13C C38G U53A U82G G92A C105G C114U G128C U151C | ≤ -4.2
U13C C38U G86A G124C | -1.98
U13C C54G C95G | -3.76
U13C C72A A73U C87U G141U | ≤ -4.2
U13C C76U U90C U130A U135G U139A | ≤ -4.2
U13C C79G G86U C99G C103A G136C A137C G143A | ≤ -4.2
U13C C87G | ≤ -4.2
U13C C93A G152A | ≤ -4.2
U13C C93G C99A U127C | ≤ -4.2
U13C C93U U134A | -3.08
U13C G46A C57G C76G G83C | ≤ -4.2
U13C G48C A60C U61A C75A G92U C108A C114U | ≤ -4.2
U13C G50C A73G C96G A107U A119U U148C G152A | ≤ -4.2
U13C G50U G86C A89U C96A C116A | ≤ -4.2
U13C G126A G140C | ≤ -4.2
U13C U15C C75A C79A G86U U90A A115G | ≤ -4.2
U13C U15G A39G A110G A142U | ≤ -4.2
U13C U31A C54U C57U C87U C93A C99A U111G | ≤ -4.2
U13C U31G C32G C76U C131G | ≤ -4.2

Variant | polymerase ribozyme fitness (log ratio)
U13C U44A U55A G59U G84A A150C | ≤ -4.2
U13C U45A G88C U134A G140U C149U | ≤ -4.2
U13C U45G G81A C85U C118U G126A | ≤ -4.2
U13C U55A A64U C85U | ≤ -4.2
U13C U56G A115G | -2.32
U13C U61C C85U A89C U144A | ≤ -4.2
U13C U78G C85A C116U | ≤ -4.2
U13C U104G | -1.57
U13C U148C | -2.48
U13G | -0.261
U13G A16C G50A C85A C103G U151G | ≤ -4.2
U13G A16G A21G C51G G74A C93U U111G C114A G126A | ≤ -4.2
U13G A16G A22U U44A U55A G71A G143U | ≤ -4.2
U13G A16U A26U U55A C87U | ≤ -4.2
U13G A17C A21U C36A A89U A98G U144A | ≤ -4.2
U13G A17U A21G A22G G50C G59A G70C C72U C125G | ≤ -4.2
U13G A17U A24C A28C C85G G86U C96U U135A | ≤ -4.2
U13G A19C A40U A52C G74C C93U G140A U148A C149U | ≤ -4.2
U13G A19U A49U C54G A89G C93U U127C | ≤ -4.2
U13G A20C A49C G67A U139C | ≤ -4.2
U13G A21C A23U A24U A89U C103G A110C | ≤ -4.2
